Consider 53 molecules from ChEMBL document CHEMBL4888484, “Replenishing the malaria drug discovery pipeline: Screening and hit evaluation of the MMV Hit Generation Library 1 (HGL1) against asexual blood stage Plasmodium falciparum ,using a nano luciferase reporter read-out” (2022).

Molecules are shown by their SMILES. The campaign covered roughly 150,000 compounds. About 540 (0.36%) showed an effect of 50% or more. This is one part of the list.

The subject of the assay is Plasmodium falciparum. Briefly: Primary screen in NF54 nanoGlo assay, in single point, at 2uM, 72h; a lower Z score goes with more inhibition. It counts as functional, Erythrocyte. To be noted: timepoint 72 hour.
Take `Cc1nc(-c2ccco2)ccc1C(=O)N[C@@H](C)C(=O)N1CCOCC1`: the % Inhibition – broadly, the change of the read-out against control, counted positive when it falls – was 5% and the Z score is -0.78.

Consider `CN1CCc2nc(-c3ccco3)nc(NCc3ccco3)c2CC1`, for which the “% Inhibition” value is -16% and the Z score came out at 1.48.

Consider `CCN1c2cc(C(=O)Nc3cccc(OC)c3)ccc2C(=O)N2CCC[C@@H]21`, for which the “% Inhibition” value was -2% and the Z score was determined as 0.26.

With `Cc1nnc(CN(Cc2nccs2)C2CC2)s1`, the “% Inhibition” value was -15% and the Z score turned out to be 2.01.

Take `Cc1nc(C)c(CCN[C@@H](C)c2cn3ccccc3n2)s1`: the “% Inhibition” value is on record as -5% and the Z score turned out to be 0.56.

Consider `Cc1cc(-n2ccnc2)ccc1CN(C)CCn1cccn1`, for which the “% Inhibition” value was determined as 0% and the Z score is -0.03.

Regarding `COc1cccc(CNS(=O)(=O)c2cc(-c3cc(C)no3)ccc2C)c1`, the “% Inhibition” value is given as -4% and the Z score amounted to 0.48.

Consider `O=C(c1cncc(Br)c1)N1CC[C@H](c2nc(C3CCOCC3)no2)C1`, for which the “% Inhibition” value is 35% and the Z score was -0.93.

`Cc1ccc(C2CC(C)CCN2C(=O)NC2CCC(=O)N(C)C2)o1` (stereo unspecified): the “% Inhibition” value is -5% and the Z score is 0.44.

Regarding `CCc1n[nH]c(NC(=O)CCc2ccccn2)c1Br`, the “% Inhibition” value was -6% and the Z score was determined as 1.1.

Regarding `O=C(NCCCc1ccccc1)c1n[nH]c2c1CN(C(=O)c1ccccc1F)CC2`, the “% Inhibition” value was determined as 4% and the Z score was -0.69.

As to `O=C1CNC2(CCN(S(=O)(=O)c3ccc(Cl)cc3)CC2)N1Cc1ccc(F)cc1`, the “% Inhibition” value is reported as 6% and the Z score is listed as -0.81.

In the case of `CC1CC(C(=O)NCc2cocn2)(c2cccc(Cl)c2)C1` (stereo unspecified), the “% Inhibition” value is listed as -3% and the Z score was found to be 0.36.

On to `Cc1nc2cc(C(=O)OCC(=O)N(C)CC(=O)Nc3ccc(F)cc3)ccc2n1-c1ccccc1`, for which the “% Inhibition” value is listed as -38% and the Z score amounted to 4.45.

Consider `C[C@@H](CC(=O)Nc1c[nH]c(=O)[nH]c1=O)c1ccccc1`, for which the “% Inhibition” value is listed as -9% and the Z score amounted to 0.99.

As to `O=C(Nc1ccc2ccccc2c1)N1CCCCCC1`, the “% Inhibition” value is recorded as 1% and the Z score is recorded as -0.23.

With `COc1ccc(CC(=O)NO)cc1OC`, the “% Inhibition” value is given as -14% and the Z score is 1.15.

For the molecule `Cc1cc(C)c(CN2CC[C@H](CNC(=O)c3cncnc3)C2)cc1C`, the “% Inhibition” value was -4% and the Z score was found to be 0.57.

For `CCn1nc(C)c(CC(=O)N2Cc3ccccc3N(C)C[C@@H]2C)c1C`, the “% Inhibition” value is recorded as -6% and the Z score is 0.92.

With `O=c1[nH]c(NC2CCCCC2)nc(=O)c2c1ncn2CCCc1ccccc1`, the “% Inhibition” value was -1% and the Z score came to 0.16.

As to `CCn1ncc(C)c1NC(=O)CN1CCOC1=O`, the “% Inhibition” value is -7% and the Z score came to 1.38.

Consider `COc1ccc(C(=O)N2CC(n3cc(C(=O)N(C)C)nn3)C2)cc1F`, for which the “% Inhibition” value is -9% and the Z score turned out to be 1.67.

As to `O=C1CC[C@]2(C(=O)Nc3ccc(F)cc3)CCCC=C2N1C1CCCC1`, the “% Inhibition” value is 4% and the Z score is -0.6.

Take `CCc1ncc(CN2CCC[C@H](NC(=O)CN3CCOC3=O)CC2)cn1`: the “% Inhibition” value came out at 9% and the Z score was -1.74.

In the case of `N#Cc1ccc(OC[C@H](O)COc2cccc(-n3ccnc3)c2)cc1`, the “% Inhibition” value is recorded as -21% and the Z score worked out at 1.9.

Take `COc1ccc(Nc2cc(Nc3ccc(OC)cc3)n(C(=O)C3CCCCC3)n2)cc1`: the “% Inhibition” value turned out to be 26% and the Z score is -2.95.

On to `COCCN1C(=O)N[C@@](Cc2ccccc2Cl)(C2CCN(C(=O)C(=O)CC(C)C)CC2)C1=O`, for which the “% Inhibition” value is recorded as 10% and the Z score is listed as -1.88.

Regarding `COCCCCN1CCN(C(=O)c2[nH]cnc2C)CC1`, the “% Inhibition” value is on record as -18% and the Z score is reported as 1.93.

In the case of `CC(C)n1nnnc1N1CCN(C(=O)C(=O)NC2CC2)CC1`, the “% Inhibition” value is given as -3% and the Z score amounted to 0.63.

On to `Cc1cnn(Cc2c(C(=O)N3C[C@H]4CCCC(=O)N[C@H]4C3)noc2C)c1`, for which the “% Inhibition” value was determined as 31% and the Z score was -3.49.

As for `Cc1cccc(C(=O)N2CC3(C[C@@H](c4nnc(-c5ccccc5)o4)N(C)C3)C2)n1`, the “% Inhibition” value is listed as 10% and the Z score is reported as -1.16.

Regarding `CC1=CCN(C(=O)Nc2cc(N3CCOCC3)ccc2Cl)CC1`, the “% Inhibition” value was -1% and the Z score was 0.06.

In the case of `O=C(Nc1ccc2c(c1)OCCCO2)c1csc(-c2cccs2)n1`, the “% Inhibition” value was -28% and the Z score was determined as 3.31.

With `O=C(c1cc(Cl)ccc1Cl)N1CC[C@H](c2ccccn2)C1`, the “% Inhibition” value is -5% and the Z score worked out at 0.87.

Consider `Cc1cnc(C(=O)N2CCC(c3nc4cc(Cl)ccc4o3)CC2)c(O)c1`, for which the “% Inhibition” value is -5% and the Z score was 0.79.

Turning to `c1nc(N[C@@H]2COCC[C@@H]2OCc2cscn2)c2sccc2n1`, the “% Inhibition” value is -12% and the Z score is on record as 1.18.

Turning to `O=C(Cc1c[nH]c2ccccc12)N1CCc2nocc2C1`, the “% Inhibition” value is recorded as -13% and the Z score is given as 1.67.

As to `C[C@]1(O)CCN(c2cccc(C#N)n2)C[C@H]1Cc1ccccc1`, the “% Inhibition” value is -11% and the Z score is listed as 1.42.

`CCS(=O)(=O)N1CC(=O)N(Cc2ccccc2Cl)[C@](C)(C(=O)NCc2ccccc2OC)C1`: the “% Inhibition” value was -17% and the Z score came out at 2.17.

As for `COc1ccc(C(=O)NCCc2c[nH]c3ccccc23)cc1OC1CCN(C(C)C)CC1`, the “% Inhibition” value is -8% and the Z score is on record as 1.53.

As to `CCS(=O)(=O)N1C[C@H](c2nc(-c3ccc(F)cc3)no2)C2(CCOCC2)C1`, the “% Inhibition” value is listed as -3% and the Z score was found to be 0.64.

Regarding `C[C@@H](Cc1csc2ccccc12)NC(=O)c1c(F)cccc1Cl`, the “% Inhibition” value was determined as 6% and the Z score is -0.74.

With `c1ccc(C2(c3ccccc3)O[C@@H](c3cccnc3)Nc3ccccc32)cc1`, the “% Inhibition” value is -4% and the Z score amounted to 0.54.

Take `O=C(NCc1nnc([C@@H]2CCCO2)[nH]1)c1cccc(Cl)c1`: the “% Inhibition” value is listed as 2% and the Z score is reported as -0.36.

As to `O=C(NC1CC1)[C@H]1CCCN(C2CCN(c3nc4ccccc4o3)CC2)C1`, the “% Inhibition” value turned out to be 2% and the Z score is -0.25.

With `CN(Cc1ccccc1)C1CN(C(=O)[C@H]2CCCO2)C1`, the “% Inhibition” value is reported as 2% and the Z score is listed as -0.21.

As to `CC(NC(=O)C1(C(=O)NC(C)C2CC2)CCC1)C1CC1` (stereo unspecified), the “% Inhibition” value was 3% and the Z score was -0.29.

In the case of `CCN1C[C@@H](NC(=O)COCC(F)(F)C(F)F)CC1=O`, the “% Inhibition” value is given as -3% and the Z score is reported as 0.61.

For the molecule `COc1ccc(NC(=O)c2sc(NC3CCCCC3)nc2C)cc1OC`, the “% Inhibition” value is -8% and the Z score is recorded as 1.33.

On to `Cc1csc(NC(=O)[C@H](C)S(C)(=O)=O)n1`, for which the “% Inhibition” value is 4% and the Z score is recorded as -0.72.

Take `CC(=O)N[C@H]1C[C@H](c2nnc(COc3ccc4c(c3)OCO4)n2C)C1`: the “% Inhibition” value was determined as 0% and the Z score is on record as -0.03.

In the case of `Cc1ccc(OCCN2CC[C@H](CO)[C@@H](O)C2)c(Cl)c1`, the “% Inhibition” value is on record as -3% and the Z score is recorded as 0.59.

As to `Cc1ccc2nc(-c3ccc(F)cc3)c(CN(C)Cc3ccno3)cc2c1`, the “% Inhibition” value is -11% and the Z score came to 0.97.
